Data as given in the supplement of paper PMC10126150.
Sequences with one replicate were seen in a single cluster, so their values are uncertain.

System: ATP
Test: switch fluorescence ratio, 500 uM ATP over buffer (Cy3 cluster intensity, sum of 5 cycles each) (fold (ratio)); higher = stronger signal-on switching upon ATP binding; sequences stand for … in TCGTCGGCAGCGTCAGATGTGTATAAGAGACAGTTTTTTTTTTTTTTTTTTTTTTTTT…TC
Conditions: aptamer strand: ATP DNA aptamer (quencher-CACCTGGGGGAGTATTGCGGAGGAAGG + anchor), 100 nM annealed; ATP concentration: 500 uM; one replicate
In short: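 Exposure to 500 uM ATP lasted 15 min at 22 °C before imaging, and a selection-buffer image was taken beforehand, for Cy3-labelled switching-strand clusters on a modified Illumina MiSeq flow-cell annealed to 100 nM quencher-labelled ATP aptamer. Five buffer/ATP cycles were run with NaOH stripping and re-annealing between them. The fluorescence ratio per cluster is summed target-cycle over summed buffer-cycle Cy3 intensity, averaged per switch-domain sequence. Clusters outside 100-1000 RFU were excluded.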

| Sequence | switch fluorescence ratio |
| --- | --- |
| GCGCGCCGGT | 1.01 |
| TGGGGGACT | 0.96 |
| GCGCTGGAAA | 1.03 |
| ATATCATTGA | 1.01 |
| ATGCCGGGCC | 0.955 |
| AGAAGCGAAG | 1.01 |
| TCTACTTCCT | 1.51 |
| GTAATTATTA | 0.971 |
| CAATACCCGT | 1.05 |
| ATCGTTGCCC | 1 |
| TGCGACCTGT | 0.996 |
| AAACTCATGT | 1.07 |
| AACCGACCC | 2.81 |
| AAACGGGCAA | 1.05 |
| TGCGGGCATC | 0.987 |
| TTAATTGACC | 1.05 |
| ACGGCTTGAT | 1.03 |
| ACTTTCACCC | 1.3 |
| CATCTAGTTG | 0.947 |
| ATTCAAGTAA | 1.07 |
| GGTCGTTTCT | 0.977 |
| AGTGCTAGA | 1.07 |
| CAAGTTTAAC | 1.02 |

| Sequence | switch fluorescence ratio |
| --- | --- |
| GAACTACTCT | 0.974 |
| GGCTACAAGG | 0.996 |
| CAAAGGTGGG | 1.03 |
| CATCCACCGC | 3.81 |
| TTAGTAGCAG | 1 |
| TATGGATAAG | 1.02 |
| TTGTATGCCC | 0.989 |
| AGCACCCAAT | 1.06 |
| TTGTCATAAA | 1.01 |
| CACGGAAGGG | 1.03 |
| CATCTTTGTA | 0.941 |
| CTCTTCCTGT | 1 |
| AATGCAAGAG | 1.55 |
| ACATACATAA | 1.15 |
| GTTGCCGCCT | 1.01 |
| CAAAGTTAGC | 0.998 |
| GCAGGTTGTG | 1.02 |
| TTGAGGTATT | 0.995 |
| TGAATAAAAA | 1.09 |
| ATAAGCGAGA | 1.04 |
| GGTAAGAGTC | 1.07 |
| CCCTTTAGGT | 1.01 |
| TCGGTAGCTC | 1.24 |

| Sequence | switch fluorescence ratio |
| --- | --- |
| GATGGCACGC | 1.08 |
| GTTGCAAGTT | 0.963 |
| AATCAGACAA | 1 |
| GCCCGAACGT | 0.976 |
| AGTGTGGCGT | 1.07 |
| AATAATGCA | 0.998 |
| TCCGTTTAAC | 1.74 |
| AATAGCATC | 1.03 |
| GGTGCTAAGA | 1.04 |
| GTCGCTAGAG | 0.994 |
| CTAGGTAGAT | 0.997 |
| ATCCTGCAGA | 1.04 |
| TTGTGTCAAC | 1.04 |
| GGTAGCCATA | 1.03 |
| GGCAGGGACA | 1.03 |
| TGCCTTATAC | 1.55 |
| TTGTGTATAG | 0.973 |
| GCGACCCGAA | 1.1 |
| CTGATTACTC | 1.02 |
| GCTCCACCCA | 1.19 |
| GTGTATTATG | 0.99 |
| GGGGCCCAAA | 1.01 |
| AGATATCCGG | 0.992 |

| Sequence | switch fluorescence ratio |
| --- | --- |
| AATGGGTTAC | 1.06 |
| GCGGGAGGTT | 1 |
| GGGTCACGGC | 0.998 |
| TGCTGACGTG | 1 |
| TAACGCACTT | 1.48 |
| AGCGAGCATA | 1.02 |
| ATTGATACGC | 1.1 |
| TCGTGGCTGG | 1.01 |
| TAGAGCACAG | 1.05 |
| GCCAACTGCG | 0.941 |
| CGTCTATAAT | 1.07 |
| GCGTACGTAT | 0.996 |
| CAGGGAGTAA | 1.26 |
| AGTGATATAA | 1.02 |
| AATAGACAAG | 0.945 |
| CTGCGTGATC | 1.24 |
| ATGGATTGCC | 1 |
| AACTATAATC | 1.02 |
| CCGGTGACCA | 1.01 |
| ACCAATGAGC | 1.1 |
| GTGTTCCCCG | 1.1 |
| CGCCGGTACT | 1.16 |
| GCTGGAAGGT | 0.995 |

| Sequence | switch fluorescence ratio |
| --- | --- |
| CGAGGTTCTT | 1.02 |
| CTGGTACCT | 1.07 |
| GGTTGTACGC | 1 |
| GAGGGCTGAA | 0.98 |
| CCGCTTTGGT | 1.28 |
| ATGTCATC | 1 |
| TATAACCTGG | 0.972 |
| GGGTCGCGCG | 1.02 |
| ACTTTAATAC | 1.65 |
| TTGAAGTCCT | 1.02 |
| TTCAGGGTA | 0.975 |
| CCGGGGCGT | 1.03 |
| TAAACGTTT | 1.02 |
| GCTGGGTATG | 1.01 |
| CGACACCTGG | 1.51 |
| ACATAGGCCG | 0.982 |
| TCATCTAGCT | 1.05 |
| CGCGGGGGCT | 0.989 |
| GGCTTTGTAT | 1 |
| CCATTTTTAT | 0.969 |
| CTGCGGAGTA | 1.03 |
| TAAGATGCGC | 0.997 |
| CTATACTAGG | 1 |

| Sequence | switch fluorescence ratio |
| --- | --- |
| CAACTTGTGG | 0.989 |
| GATTACATAC | 1.5 |
| TTGGTGAACC | 1.01 |
| TCGGTTAGCA | 1.01 |
| ATTCCACCAT | 1.09 |
| TCCCTCCAAG | 1.24 |
| CGCACGTTAC | 2.79 |
| GCATCATTAA | 0.99 |
| TGTGCTACCT | 1.1 |
| CGACTCCGGT | 1.66 |
| CCATATAAAA | 0.998 |
| AAATATTGCC | 0.988 |
| TGGGTGTACG | 0.967 |
| TACGGGCAGG | 1 |
| AGCACCTATA | 1.01 |
| ATAAGCGACT | 0.997 |
| AAGTTTAGGC | 1.05 |
| GATGTACGT | 1.02 |
| AGTTATGGCC | 1.01 |
| CTGTAGAGGA | 1.01 |
| TGGTATGGT | 0.95 |
| TTGGTACATA | 1.06 |
| TTGAGTAGA | 0.975 |

| Sequence | switch fluorescence ratio |
| --- | --- |
| GTCGGGTATT | 0.963 |
| AGCTCTTTTA | 1.01 |
| CCAAGAGGTG | 1.88 |
| AAGTTGGTC | 0.971 |
| GTAGTTTCCT | 1.06 |
| CTCCTACCCC | 1.42 |
| AGCGCGGCGA | 1.08 |
| ACCAAGCTAG | 1.05 |
| TCACCACTGC | 1.47 |
| AGAGGGCGAT | 0.983 |
| GCTAGAATAC | 1.72 |
| CTATTCAACG | 1.03 |
| TGCACGTAGG | 1.04 |
| ATTTTATTGA | 0.988 |
| CCGGCAGATT | 1.11 |
| GGGTGCTAGG | 0.989 |
| GCTTAACAGG | 1.01 |
| GGGATATGG | 1.01 |
| CAGGGTCCGA | 0.99 |
